# Results reported in patent US12624123B2, “Compositions and methods for reducing off-target toxicity of antibody drug conjugates” (The Research Foundation for The State University of New York, priority 2019, dated 2026).
# For part of its entries the source gives two or more results. The other results are left out here. The source may hold further records. Values that stand side by side seem to repeat one measurement; one of them may be the mean.
# Test system: SK-BR-3 cells
# Assay: MTT cytotoxicity assay in SK-BR-3 cells
# Format: cell-based
# Settings: 24 h exposure, without sdAb, read-out: Free DM4 IC50
structure (smiles),measurement,value
COc1cc2cc(c1Cl)N(C)C(=O)C[C@H](OC(=O)[C@H](C)N(C)C(=O)CCC(C)(C)S)[C@]1(C)O[C@H]1[C@H](C)[C@@H]1C[C@@](O)(NC(=O)O1)[C@H](OC)/C=C/C=C(\C)C2 [DM4],IC50,"0.29, 0.42, 0.39, 0.4 nM"
